{"source": "PubChem BioAssay AID488969", "about": "(Vanderbilt High Throughput Screening Facility, 2010)", "note": "In all, about 110,000 compounds were measured (“z-score”: median about -0.1, highest 2% from about 2 on). This is one part of the list.", "data": [{"molecular_target": "Metabotropic glutamate receptor 8 (Rattus norvegicus) (UniProt P70579)", "sequence (P70579 whole entry, looked up)": "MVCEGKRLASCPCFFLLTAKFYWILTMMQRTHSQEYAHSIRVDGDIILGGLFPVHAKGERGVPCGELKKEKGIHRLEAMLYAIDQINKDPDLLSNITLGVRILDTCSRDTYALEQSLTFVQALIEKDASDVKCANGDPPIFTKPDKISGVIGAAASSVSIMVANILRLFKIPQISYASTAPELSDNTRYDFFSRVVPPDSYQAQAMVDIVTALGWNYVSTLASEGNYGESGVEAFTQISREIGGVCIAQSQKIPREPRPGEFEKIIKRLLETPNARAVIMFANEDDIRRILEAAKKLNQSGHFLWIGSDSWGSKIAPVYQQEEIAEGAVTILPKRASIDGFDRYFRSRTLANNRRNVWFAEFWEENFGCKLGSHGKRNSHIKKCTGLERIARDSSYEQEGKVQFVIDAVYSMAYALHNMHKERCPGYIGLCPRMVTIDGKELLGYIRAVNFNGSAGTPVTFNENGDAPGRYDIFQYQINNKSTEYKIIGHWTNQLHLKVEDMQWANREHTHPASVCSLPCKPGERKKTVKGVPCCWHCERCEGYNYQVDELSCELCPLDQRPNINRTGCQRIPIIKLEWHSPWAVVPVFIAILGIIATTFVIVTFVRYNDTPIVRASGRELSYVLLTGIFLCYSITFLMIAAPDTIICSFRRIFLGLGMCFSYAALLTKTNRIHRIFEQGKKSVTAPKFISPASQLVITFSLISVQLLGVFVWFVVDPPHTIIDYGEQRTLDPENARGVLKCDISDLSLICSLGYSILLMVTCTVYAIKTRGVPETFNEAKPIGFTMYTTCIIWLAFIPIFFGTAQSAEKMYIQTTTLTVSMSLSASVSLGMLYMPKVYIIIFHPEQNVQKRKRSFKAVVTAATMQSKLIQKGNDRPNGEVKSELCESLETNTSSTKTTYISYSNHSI", "experiment": "mGluR8 Gi/Go-coupled signaling modulation – cell-based, rat, thallium flux, HTS, primary screen (AID 488969)", "conditions": "HEK293 rat mGluR8, GIRK (G protein-gated inwardly rectifying potassium channel) thallium flux, FluoZin2; at 10 µM; stronger effect = higher value; submaximal glutamate (EC20) added with thallium", "values": [{"smiles": "CCOC(=O)Cn1nnnc1CN(CCc1ccccc1)Cc1cc2cc(CC)ccc2[nH]c1=O", "z-score": 0.497}, {"smiles": "O=S(=O)(CCc1nc2ccccc2s1)c1ccc2ccccc2c1", "z-score": -0.2}, {"smiles": "Nn1c(SCC(=O)N2CCCc3ccccc32)nnc1-c1ccc(Cl)cc1", "z-score": -0.232}, {"smiles": "O=C(Nn1cc(C(=O)N2CCN(c3ccccc3F)CC2)c2ccccc2c1=O)c1cnccn1", "z-score": -1.45}, {"smiles": "COc1ccc(S(=O)(=O)NCCSc2ccc(Cl)cc2)cc1OC", "z-score": -0.236}, {"smiles": "Cc1noc(NS(=O)(=O)c2ccc(NC(=O)CSc3nc4ccccc4s3)cc2)c1C", "z-score": -0.168}, {"smiles": "CCN1CCN(CCn2c(=S)[nH]c3ccccc3c2=O)CC1", "z-score": 0.66}, {"smiles": "c1ccc(-c2nc(C3CCCCC3)no2)cc1", "z-score": -0.12}, {"smiles": "CCn1c(SCC(=O)Nc2nnc(C)s2)nnc1-c1ccco1", "z-score": -0.0211}, {"smiles": "Cc1ccc(N2NC(C)(c3cccs3)NC2=S)cc1", "note": "(centres undefined)", "z-score": -0.076}, {"smiles": "COc1cc(S(=O)(=O)NCCCN2CCOCC2)ccc1Cl", "z-score": 0.102}, {"smiles": "Cc1sc2ncnc(Nc3ccccc3)c2c1C", "z-score": -0.0786}, {"smiles": "O=c1[nH]nc(Cc2ccc(-c3ccccc3Cl)o2)c2ccccc12", "z-score": 0.00944}, {"smiles": "CC1(C)N=C(SCC(=O)Nc2ccccc2)C(c2ccc(Cl)cc2)=N1", "z-score": 0.527}, {"smiles": "CC(C)C12CN3CCN(CC(C3)/C1=N\\NC(=O)Nc1ccccc1)C2", "z-score": -0.315}, {"smiles": "CCOC(=O)N1CCN(c2cc(N3CCN(CC)CC3)c(F)cc2[N+](=O)[O-])CC1C", "note": "(centres undefined)", "z-score": 0.0139}, {"smiles": "Cn1c(CCCOc2ccc(Cl)cc2Cl)nnc1SCC(=O)Nc1ccc(F)c(Cl)c1", "z-score": -0.0175}, {"smiles": "Cn1cc(C(CC(=O)O)C(=O)O)c2ccccc21", "note": "(centres undefined)", "z-score": 0.0131}, {"smiles": "Cc1ccc(S(=O)(=O)/N=C(/NC(=S)Nc2ccccc2)c2ccccc2)cc1", "z-score": 0.34}, {"smiles": "COc1cccc(C(=O)Nc2cc(=O)n(C)c(=O)n2C)c1OC", "z-score": -0.112}, {"smiles": "CCCNc1[nH]c(=O)n(C)c(=O)c1N=O", "z-score": -0.206}, {"smiles": "CCN(C(=O)c1cccc(Br)c1)c1ccccc1", "z-score": -0.565}, {"smiles": "CCOc1cc(CNCCSc2nnnn2C)cc(Br)c1OCc1ccccc1", "z-score": 2.3}, {"smiles": "Cc1cc(C)n2nc(C(=O)OCC(=O)c3cc(C)n(C)c3C)nc2n1", "z-score": -0.164}, {"smiles": "CCCNC(=O)C(=O)N/N=C/c1cccs1", "z-score": -0.243}, {"smiles": "O=Cc1cn(CC(=O)N2CCCc3ccccc32)c2ccccc12", "z-score": -0.254}, {"smiles": "CCn1c(=O)c2c(O)cc(=O)oc2c2ccccc21", "z-score": -0.0943}, {"smiles": "CCC(=O)Nc1nc(CC(=O)Nc2ccccc2OC)cs1", "z-score": -0.027}, {"smiles": "COc1ccccc1CC1(C)NC(=O)N(CC(=O)Nc2cc(C)on2)C1=O", "note": "(centres undefined)", "z-score": 0.812}, {"smiles": "COCCCn1c(SCC(=O)Nc2ccc(C(=O)OC)cc2)nc2ccccc2c1=O", "z-score": 0.0898}, {"smiles": "Cc1ccc2cc(C(c3nnnn3CC3CCCO3)N3CCCC4(CCCCC4)C3)c(=O)[nH]c2c1", "note": "(centres undefined)", "z-score": 0.0696}, {"smiles": "CC(OC(=O)c1snc(C(=O)NC2CCCCC2)c1N)C(=O)NC1CCCCC1", "note": "(centres undefined)", "z-score": 0.127}, {"smiles": "COC(=O)c1cccc(NC(=O)CCSc2ccc(Cl)cc2)c1C", "z-score": -0.0393}, {"smiles": "COc1cc2nc(/C=C/c3cc(OC)c(OC)c(OC)c3)sc2cc1SC", "z-score": -0.168}, {"smiles": "CSc1nc(SCC(N)=O)c2c3c(sc2n1)CN(C)CC3", "z-score": -0.647}, {"smiles": "C=CCN1C(=O)C(Cc2ccc(C)cc2)S/C1=N/N=C/c1ccco1", "note": "(centres undefined)", "z-score": -0.0743}, {"smiles": "O=C(CSc1ncc(-c2ccccc2)n1-c1ccccc1)NCc1ccco1", "z-score": -0.867}, {"smiles": "COc1ccccc1-n1c(CNC(=O)c2ccco2)nnc1SCC(=O)Nc1nccs1", "z-score": -0.513}, {"smiles": "CCOC(=O)N1CCN(C(=O)CSc2cc(C)nc3c(-c4ccccc4OC)c(C)nn23)CC1", "z-score": -0.649}, {"smiles": "CCOC(=O)Cn1c(=O)oc2cc(S(=O)(=O)NC3CCCc4ccccc43)ccc21", "note": "(centres undefined)", "z-score": 0.143}, {"smiles": "O=S(=O)(c1ccccc1)N1CCn2c(nc3ccccc32)C1", "z-score": -0.0705}, {"smiles": "Clc1cccc(Cl)c1Cn1cnc(=NCc2ccco2)c2[nH]cnc21", "z-score": -0.33}, {"smiles": "S=C(c1ccc(-c2ccc(Cl)cc2Cl)o1)N1CCCCC1", "z-score": -0.256}, {"smiles": "Cc1cc(C(=O)OC(C)C(=O)Nc2cccc(S(=O)(=O)N3CCOCC3)c2)c(C)o1", "note": "(centres undefined)", "z-score": -0.26}, {"smiles": "O=C(c1ccc2c(=O)n(-c3ccccc3)c(=O)[nH]c2c1)N1CCCCC1", "z-score": 0.182}, {"smiles": "CCN1C(=O)/C(=C/N(C(C)=O)c2ccccc2)N(c2ccccc2)C1=S", "z-score": 1.79}, {"smiles": "CCOc1cc(C(=O)Nc2c3c(nn2C(C)(C)C)CS(=O)C3)cc(OCC)c1OCC", "note": "(centres undefined)", "z-score": -0.894}, {"smiles": "CCC(=O)Nc1sc2c(c1C#N)CC(C)(CC)OC2", "note": "(centres undefined)", "z-score": -0.834}, {"smiles": "Cc1ccc(NC(=O)c2cc(S(=O)(=O)NCCc3ccccc3)ccc2F)cc1Cl", "z-score": 0.122}, {"smiles": "Cc1cc(C)nc(-n2nc(C)c(C3(O)C(=O)Nc4ccc(F)cc43)c2N)n1", "note": "(centres undefined)", "z-score": -0.784}, {"smiles": "Cc1cc(C(=O)NCc2ccccc2Br)no1", "z-score": -0.0761}, {"smiles": "N/C(=N\\OS(=O)(=O)c1ccccc1)c1cccnc1", "z-score": -0.152}, {"smiles": "COc1cc2c(cc1OC)C(c1cccs1)N(C(=O)C(C)C)CC2", "note": "(centres undefined)", "z-score": -0.132}, {"smiles": "COc1ccc(CC(=O)OCC(=O)NC(=O)NC(C)C)cc1", "z-score": 0.37}]}]}
